From the supplement of paper PMC11369174, “Proteome-scale characterisation of motif-based interactome rewiring by disease mutations” (Molecular Systems Biology, 2024)
The other results are listed elsewhere or left out. Values come from read counts of a selection and are noisy.

molecular target: EZR_FERM_1_P15311_2_295; experiment: mean normalised NGS count of phage-displayed peptide after selection on bait (% of reads); baits are purified protein domains named by gene / domain / UniProt id / residues; peptides come from disordered regions of human proteins; higher = stronger enrichment / binding; conditions: replicate selections in which the peptide was seen: 2
Sequence (chain, as listed by the source): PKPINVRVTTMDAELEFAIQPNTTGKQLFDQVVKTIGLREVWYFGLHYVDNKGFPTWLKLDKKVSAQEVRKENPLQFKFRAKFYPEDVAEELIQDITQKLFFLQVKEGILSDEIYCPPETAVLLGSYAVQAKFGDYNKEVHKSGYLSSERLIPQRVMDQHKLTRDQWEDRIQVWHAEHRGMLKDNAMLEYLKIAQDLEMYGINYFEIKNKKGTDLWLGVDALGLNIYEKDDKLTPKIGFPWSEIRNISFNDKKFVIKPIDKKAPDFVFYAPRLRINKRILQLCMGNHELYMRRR

Binder	mean normalised NGS count
EYVMSIDSLQLGAAED [CPT1A 486-501 mut P50416.Y498C]	0.0887
FYGVVERPVDISLSPY [SH3BP2 152-167 mut P78314.A155V]	0.0589
RGFALHAFTFLWDPWN [SCN5A 179-194 mut Q14524.R190W]	0.101
KEQSEKAAMYDIISST [NIPBL 336-351 mut Q6KC79.P351T]	0.00527

Molecular target: T1, MSN_FERM_1_P26038_1_322
T1 chain: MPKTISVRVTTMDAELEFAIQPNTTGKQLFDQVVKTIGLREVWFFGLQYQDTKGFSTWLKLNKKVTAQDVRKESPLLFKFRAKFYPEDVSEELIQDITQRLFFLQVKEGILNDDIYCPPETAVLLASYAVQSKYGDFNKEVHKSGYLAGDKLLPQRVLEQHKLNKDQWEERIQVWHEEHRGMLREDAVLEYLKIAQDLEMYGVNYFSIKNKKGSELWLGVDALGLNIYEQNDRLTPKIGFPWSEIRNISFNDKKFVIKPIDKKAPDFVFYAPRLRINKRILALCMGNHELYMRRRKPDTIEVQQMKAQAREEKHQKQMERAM
Experiment: as above
Conditions: replicate selections in which the peptide was seen: 2

Binder	mean normalised NGS count
EYVMSIDSLQLGAAED [CPT1A 486-501 mut P50416.Y498C]	0.259
KWEPLQQVDTSTRTHN [KRT1 211-226 mut P04264.L214P]	1.84
APQTYAEYAISQPLEG [ERCC1 56-71 wt]	0.0308

Same assay, conditions: replicate selections in which the peptide was seen: 6

Binder	mean normalised NGS count
FYGVVERPVDISLSPY [SH3BP2 152-167 mut P78314.A155V]	0.186
LFQITTSPGWDGLLAP [SCN1A 1717-1732 mut P35498.A1724P]	3.34
SYSISSILGITSPSAD [PAX5 178-193 mut Q02548.G183S]	3.07
LFQITTSPGWDGLLAP [SCN5A 1717-1732 mut P35498.A1724P]	3.34
LFQITTSPGWDGLLAP [SCN9A 1717-1732 mut P35498.A1724P]	3.34
EYVLQNTSPEGIPTIQ [SYNE1 3345-3360 mut Q8NF91.S3346Y]	14.4
LFQITTSPGWDGLLAP [SCN2A 1717-1732 mut P35498.A1724P]	3.34
LFQITTSPGWDGLLAP [SCN3A 1717-1732 mut P35498.A1724P]	3.34
LFQITTSPGWDGLLAP [SCN8A 1717-1732 mut P35498.A1724P]	3.34
LFQITTSPGWDGLLAP [SCN10A 1717-1732 mut P35498.A1724P]	3.34
EEIFHMTYDLASAVVT [HCN1 282-297 mut O60741.R297T]	0.134
VFQLPTLNFSPEQVAS [SIX3 79-94 mut O95343.M79V]	3.64
GYEVKEDIGVGSYSVA [RPS6KA3 421-436 wt]	1.82
EEIFHMTYDLASAVVT [HCN3 282-297 mut O60741.R297T]	0.134
EEIFHMTYDLASAVVT [HCN4 282-297 mut O60741.R297T]	0.134

Same assay, conditions: replicate selections in which the peptide was seen: 5

Binder	mean normalised NGS count
RGFALHAFTFLWDPWN [SCN5A 179-194 mut Q14524.R190W]	1.51

Molecular target: T2, RDX_FERM_1_P35241_5_295
T2 chain: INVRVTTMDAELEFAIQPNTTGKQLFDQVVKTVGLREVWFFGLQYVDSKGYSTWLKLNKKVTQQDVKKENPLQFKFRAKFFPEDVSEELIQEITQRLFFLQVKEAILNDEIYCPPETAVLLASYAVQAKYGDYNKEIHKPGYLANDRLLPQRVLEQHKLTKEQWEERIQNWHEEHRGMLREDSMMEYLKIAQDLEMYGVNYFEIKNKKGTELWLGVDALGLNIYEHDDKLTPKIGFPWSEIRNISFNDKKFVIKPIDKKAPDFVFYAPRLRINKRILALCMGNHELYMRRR
Experiment: as above
Conditions: replicate selections in which the peptide was seen: 4

Binder	mean normalised NGS count
RGFALHAFTFLWDPWN [SCN5A 179-194 mut Q14524.R190W]	0.0592
EYVLQNTSPEGIPTIQ [SYNE1 3345-3360 mut Q8NF91.S3346Y]	8.84

molecular target: EZR_FERM_1_P15311_2_295; experiment: as above; conditions: replicate selections in which the peptide was seen: 3

Binder	mean normalised NGS count
KWEPLQQVDTSTRTHN [KRT1 211-226 mut P04264.L214P]	0.0761
APQTYAEYAISQPLEG [ERCC1 56-71 wt]	4.59
LFQITTSPGWDGLLAP [SCN1A 1717-1732 mut P35498.A1724P]	0.0868
SYSISSILGITSPSAD [PAX5 178-193 mut Q02548.G183S]	3.61
LFQITTSPGWDGLLAP [SCN5A 1717-1732 mut P35498.A1724P]	0.0868
LFQITTSPGWDGLLAP [SCN9A 1717-1732 mut P35498.A1724P]	0.0868
EYVLQNTSPEGIPTIQ [SYNE1 3345-3360 mut Q8NF91.S3346Y]	0.178
LFQITTSPGWDGLLAP [SCN2A 1717-1732 mut P35498.A1724P]	0.0868
AQQDSYEFVSPSPPAD [BARD1 175-190 wt]	42.1
LFQITTSPGWDGLLAP [SCN3A 1717-1732 mut P35498.A1724P]	0.0868
LFQITTSPGWDGLLAP [SCN8A 1717-1732 mut P35498.A1724P]	0.0868
LFQITTSPGWDGLLAP [SCN10A 1717-1732 mut P35498.A1724P]	0.0868

Molecular target: T2, RDX_FERM_1_P35241_5_295
Experiment: as above
Conditions: replicate selections in which the peptide was seen: 5

Binder	mean normalised NGS count
KWEPLQQVDTSTRTHN [KRT1 211-226 mut P04264.L214P]	6.61

Same assay, conditions: replicate selections in which the peptide was seen: 6

Binder	mean normalised NGS count
SYSISSILGITSPSAD [PAX5 178-193 mut Q02548.G183S]	18
VFQLPTLNFSPEQVAS [SIX3 79-94 mut O95343.M79V]	0.231

Molecular target: T1, MSN_FERM_1_P26038_1_322
Experiment: as above
Conditions: replicate selections in which the peptide was seen: 3

Binder	mean normalised NGS count
AQQDSYEFVSPSPPAD [BARD1 175-190 wt]	0.103

molecular target: EZR_FERM_1_P15311_2_295; experiment: as above; conditions: replicate selections in which the peptide was seen: 4

Binder	mean normalised NGS count
EEIFHMTYDLASAVVT [HCN1 282-297 mut O60741.R297T]	16
VFQLPTLNFSPEQVAS [SIX3 79-94 mut O95343.M79V]	0.221
GYEVKEDIGVGSYSVA [RPS6KA3 421-436 wt]	0.143
LPEDTGYYRVTATNTA [TTN 32786-32801 wt]	0.485
EEIFHMTYDLASAVVT [HCN3 282-297 mut O60741.R297T]	16
EEIFHMTYDLASAVVT [HCN4 282-297 mut O60741.R297T]	16

Molecular target: T2, RDX_FERM_1_P35241_5_295
Experiment: as above
Conditions: replicate selections in which the peptide was seen: 3

Binder	mean normalised NGS count
EEIFHMTYDLASAVVT [HCN1 282-297 mut O60741.R297T]	2.2
EEIFHMTYDLASAVVT [HCN3 282-297 mut O60741.R297T]	2.2
EEIFHMTYDLASAVVT [HCN4 282-297 mut O60741.R297T]	2.2

molecular target: FKBP1A_full-length__P62942_1_108, P62942; experiment: as above; conditions: replicate selections in which the peptide was seen: 2
Sequence (P62942 whole entry): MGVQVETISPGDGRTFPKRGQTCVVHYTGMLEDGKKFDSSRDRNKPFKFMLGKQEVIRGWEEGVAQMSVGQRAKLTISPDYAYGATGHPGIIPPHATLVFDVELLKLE

Binder	mean normalised NGS count
GPKPMPPYSSMFILSM [CACNA1A 1213-1228 mut O00555.T1228M]	0.729
WEMGPPGNWSPRPPAA [SQSTM1 198-213 mut Q13501.R212C]	0.0581

same assay, conditions: replicate selections in which the peptide was seen: 4

Binder	mean normalised NGS count
PPGNWSPRPPAAGEAR [SQSTM1 202-217 mut Q13501.R212C]	0.516

same assay, conditions: replicate selections in which the peptide was seen: 5

Binder	mean normalised NGS count
LGPTFTNTGAATLVIG [HNF1A 422-437 mut P20823.S432C]	1.54
WLPPLRDGGAKIDGYI [TTN 19746-19761 wt]	3.51

same assay, conditions: replicate selections in which the peptide was seen: 6

Binder	mean normalised NGS count
LGPTFTNTGASTLVIG [HNF1A 422-437 wt]	25.9

Molecular target: T3, G3BP2_NTF2_1_Q9UN86_1_139
T3 chain: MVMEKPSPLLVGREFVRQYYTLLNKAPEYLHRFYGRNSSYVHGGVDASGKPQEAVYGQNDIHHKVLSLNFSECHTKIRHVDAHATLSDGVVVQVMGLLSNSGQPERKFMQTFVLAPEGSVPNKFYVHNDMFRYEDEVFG
Experiment: as above
Conditions: replicate selections in which the peptide was seen: 2

Binder	mean normalised NGS count
NPHQDLQAQDRAHRVG [SMARCA2 1179-1194 mut P51532.I1193V]	0.132
NPHQDLQAQDRAHRVG [SMARCA4 1179-1194 mut P51532.I1193V]	0.132
TPTPFSVKDILNLEQQ [NKX2-5 8-23 wt]	0.016
FVNFGVGDLNAVQGPG [NKX2-5 292-307 mut P52952.S305G]	0.00807
PMDPVTFIQTLPSDLR [HUWE1 3055-3070 wt]	0.242
DKMRHDVGEFPVLFFG [NSD1 1785-1800 wt]	0.0147

Same assay, conditions: replicate selections in which the peptide was seen: 3

Binder	mean normalised NGS count
LTFGTEVSAAVLMSYP [SLC38A8 274-289 mut A6NNN8.D283A]	0.0127
VTRNDVAPTLMSVPRY [CDH1 782-797 wt]	0.0702
PFGLDFYSSDTEEPAI [MARVELD2 56-71 mut Q8N4S9.P59L]	0.0154
LLQFLDTQAPMLTDPQ [MED12 570-585 mut Q93074.R585Q]	0.0877

Same assay, conditions: replicate selections in which the peptide was seen: 4

Binder	mean normalised NGS count
AAVSHWQQQSYLDFGI [CTNNB1 20-35 mut P35222.S33F]	0.125
FQDVLLQFLDTQSPML [MED12 566-581 mut Q93074.A578S]	0.0228
LLQFLDTQSPMLTDPR [MED12 570-585 mut Q93074.A578S]	0.197
FGQAQMNFPLGDILIF [BCL11A 48-63 mut Q9H165.C48F]	0.0241

Same assay, conditions: replicate selections in which the peptide was seen: 5

Binder	mean normalised NGS count
GWASTAHPLSNMVLTF [NDUFS4 113-128 mut O43181.D119H]	0.387
VTFESRAQLGGPEAAK [HSPB1 183-198 wt]	0.0569
LPAFQHLLFGEVNNIP [BRCA1 1223-1238 mut P38398.K1233E]	0.0559
GKQLPFVYGDIPPGMV [SCN9A 56-71 mut Q15858.I62V]	0.116
VTFIQTLPSDLARSVL [HUWE1 3059-3074 mut Q7Z6Z7.R3070C]	0.187
SPASPNEFAFGSYVPS [LCA5 544-559 wt]	2.37
HDVEEFPVLFFGSNDY [NSD1 1789-1804 mut Q96L73.G1792E]	0.0485
